Data on 20 variants can be found in the RNAGym collection of RNA variant scans (doi:10.7554/elife.90254).

The source gives no read counts; variants with many changes may rest on few reads.

The labels stand for the following.
B1: OR4K15 (parent)
chain: GUUAACGGUCAUAGGCCAUGGAAACUAGGAGCACCAUUUCGCUGCCAGUGAAGAAAUGAACAAAGAAAAUCUGGGCCAGGCAGGCAUCAAAAGAAAUAGUCUUGCGCUCAACCAGAAAGUCUGUAAUCAUUUUAAGGGUA

The series covers variants of B1. The experiment in a line: self-cleavage, relative activity (ratio to wild type); higher = more cleavage; in vitro, sequencing; the parent is a self-cleaving ribozyme.
Turning to GUUAACGGUCUUAGGCCAUGGAAACUAGGAGCACCAUCUCGCUGCCAGUGAAGAAGUGAACAAAGAAAAUCUGGGCCAGGCAGGCAUCAAAAGAAAUAGUCUUGCGCUCAACCAGAAAGUCUGUAAUCAUUUUAAGGGUA [A11U U38C A56G], the self-cleavage was found to be 1.18.

In the case of GUUAACGGUCUUAGGCCAUGGAAACUAGGAGCACCACUUCGCUGCCAGUGAAGAAAUGAACAAAGAAAAUCUGGGCCUGGCAGGCAUCAAAAGAAAUAGUCUUGCGCCCAACCAGAAAGUCUGUAAUCAUUUUAAGGGUA [A11U U37C A78U U108C], the self-cleavage was 0.

Take GUUAACGGUCUUAGGCCAUGGAAACUAGGAGCACCAUUUCGCUGCCAGUGAAGAAAUGAACAAAGAAAAUCCGGGCCAGGCAGGCAUCAAAAGAAAUAGUCUUGCGCUCAACCAGAAAGUCUGUAAUCAUAUUAAGGGUA [A11U U72C U131A]: the self-cleavage is 0.22.

Take GUUAACGGUCUUAGGCCAUGGAAACUAGGAGCACCAUUUCGCUGCCAGUGAAGAAAUGAACAAAGAAAAUCUGGGCCAGGCAGGCAUCAAAAGAAAUAGUCUUGCGCUCAACCAGAGAGUCUGUAAUCAUCUUAAGGGUA [A11U A117G U131C]: the self-cleavage was found to be 1.65.

As to GUUAACGGUCUUAGGCCAUGGAAACUAGGAGCACCAUUUCGCUGCCAGUGAGGAAAUGAACGAAGAAAAUCUGGGCCAGGCAGGCAUCAAAAGAAAUAGUCUUGCGCUCAACCAGGAAGUCUGUAAUCAUUUUAAGGGUA [A11U A52G A62G A116G], the self-cleavage turned out to be 0.81.

GUUAACGGUCUUAGGCCAUGGAAACUAGGAGCACCAUUUCGCUGCCAGUGAGGAAAUGAACAAAGAAAAUCUGGGCCAGGCAGGCAUCAAAAGAAAUAGUCUUGCGCUCAACCAGAGAGUCUGUAAUCAUUUUAAGGGUA [A11U A52G A117G]: the self-cleavage was 1.19.

As for GUUAACGGUCUUAGGCCAUGGAAACUAGGAGCACCAUUUCGCUGCCAGUGAAGAAAUGAACAAAGAAAAUCCGGGCCAGGCAGGCAUCAAAAGAAAUAGUCUUGCGCUCAACCAGAAAGUCUGUAAUCAUUUUAAGGGAA [A11U U72C U139A], the self-cleavage was 0.08.

Consider GUUAACGGUCUUAGGCCAUGGAAACUAGGAGCACCAUUUCGCUGCCAGUGAAGAAAUGAACAAAGAAAAUCCGGGCCAGGCAGGCAUCAAAAGAAAUAGUCUUGCGCUCAACCAGAAAGACUGUGAUCAUUUUAAGGGUA [A11U U72C U120A A125G], for which the self-cleavage was 0.06.

As for GUUAACGGUCUUAGGCCAUGGAAACUAGGAGUACCAUUUCGCUGCCAGUGAAGAAAUGAACAAAGAAAAUCUGGGCCAGGCAGGCAUCUAAAGAAAUAGUCCUGCGCUCAACCAGAAAGUCUGUAAUCAUUUUAAGGGUA [A11U C32U A89U U102C], the self-cleavage was found to be 1.86.

Take GUUAACGGUCUUAGGCCAGGGAAACUAGGAGCACCAUUUCGCUGCCAGUGAGGAAAUGAACAAAGAAAAUCUGGGCCAGGCAGGCAUCAAAAGAAAUAGUCUUGCGCUCAGCCAGAAAGUCUGUAAUCAUUUUAAGGGUA [A11U U19G A52G A111G]: the self-cleavage turned out to be 0.06.

Consider GUUAACGGUCUUAGGCCAUGGAAACUAGGAGCACCAUUUCGCUGCCAGUGAAGAAAUGAACAAAGAAAAUCUGGGCCAGGCCGGCAUCAAAAGAAAUAGUCUUGCGCUCAACCGGAAAGUCUGUAAUCAUUUUAAGGGUA [A11U A82C A114G], for which the self-cleavage was 0.06.

Turning to GUUAACGGUCUUAGGCCAUGGAAACUAGGAGCACCAUUUCGCUGCCAGUGAAGAAAUGAACAAAGAAAAUCUGGGCCAGGCAGGCAUCAAAAGAAAUAGUCUUGCGCUCAACCAGAAAGUCUGUAACCAUCUUAAGGGUA [A11U U127C U131C], the self-cleavage worked out at 1.33.

Consider GUUAACGGUCAAAGGCCAUGGGAACUAGGAGCACCAUUUCGCUGCCAGUGAGGAAAUGGACAAAGAAAACCUGGGCCAGGCAGGCAUCAAAAGAAAUAGUCUUGCGCUCAACCAGAAAGUCUGUAAUCAUUUUAAGGGUA [U12A A22G A52G A59G U70C], for which the self-cleavage was 0.62.

In the case of GUUAACGGUCUUAGGCCAUGGAAACUAGGAGCACCAUUUCGCUGCCAGUGAAGAAGUGAACAAAGAAAAUCUGGGCCAGGCAGGCAUCAAAAGAAAUAAUCUUGCGCUCAACCAGAAAGUCUGUAAUCAUUUUAAGGGUA [A11U A56G G99A], the self-cleavage is 0.96.

As to GUUAACGGUCUUAGGCCAUGGAAACUAGGAGCACCAUUACGCUGCCAGUGAUGAAAUGAGCAAAGAAAAUCUGGGCCAGGCAGGCAUCAAAAGAAAUAGUCUCGUGCCCAACCAGAAAGACUGUAAUCAUCUUAAGGGUA [A11U U39A A52U A60G U103C C105U U108C U120A U131C], the self-cleavage was 0.

For the variant GUUAACGGUCUUAGGCCAUGGAAACUAGGAGCACCAUUUCGCUGCCAGUGAAGAAAUGAGCAAAGAAAAUCUGGGCCAGGCAGGCAUCAAAGGAAAUAGUCUCGCGCUCAAUCAGAAAGUCUGUAAUCAUUUUAAGGGUA [A11U A60G A92G U103C C112U], the self-cleavage was determined as 0.01.

On to GUUAACGGUCAAAGGCCAUGGAGACUAGGAGCACCAUUUCGCUGCCAGUGAUGAAAUGAACAAGGAAAAUCUGGGCCAGGCAGGCAUCAAAAGAAAUAGUCUUGCGCUCAACCAGAAAGUCUGUAAUCAUUUUAAGGGUA [U12A A23G A52U A64G], for which the self-cleavage came to 1.45.

GUUAACGGUCUUAGGCCAUGGAAACUAGGAGCACCAUUUCGCUGCCAGUGAAGAAAUGAACAAAGAAAAUCUGGGCCAGGCAGGCAACAAAAGAAAUAGUCUUGCGCUCAACCAGAAAGUCUGUAACCAUUUUAAGGGUA [A11U U87A U127C]: the self-cleavage came out at 1.86.

GUUAACGGUCUUAGGUCAUGGAAACUAGGAGCACCAUUUCGCCGCCAGUGAAGAAAUGAACAGAGAAAAUCUGGGCCAGGCAGGCAUCAAAAGAAAUAGUCUUGCGCUCAACCAGAAAGUCUGUAAACAUUUUAAGGGUA [A11U C16U U43C A63G U127A]: the self-cleavage was determined as 1.23.

As for GUUAACGGUCUUAGACCAUGGAAACUAGGAGCACCAUUUCGCUGCCAGCGAAGAAGUGAACAAAGAAAAUCUGGGCCAGGCAGGCAUCAAAAGAAAUAGUCUUGCGCACAACCAUAAAGUCUGUAAUCAUUUUAAGGGUA [A11U G15A U49C A56G U108A G115U], the self-cleavage was found to be 0.02.
